Data published in the RNAGym collection of RNA variant scans (doi:10.1073/pnas.2313332121).
Variants at the background level are over-represented here.

B1: TPR 5TU (parent)
chain: GGAUCUUCUCGAUCUAACAAAAAAGACAAAUCUGCCACAAAGCUUGAGAGCAUCUUCGGAUGCAGAGGCGGCAGCCUUCGGUGGCGCGAUAGCGCCAACGUUCUCAACUAUGACACGCAAAACGCGUGCUCCGUUGAAUGGAGUUUAUCAUG

Variants of: B1
Test: polymerase ribozyme fitness, log enrichment relative to wild type (log ratio); higher = more active; in vitro selection for triplet polymerase activity
Method in brief: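 Fitness measures genotype enrichment against wild-type enrichment on a logarithmic scale, with inverse-variance-weighted averaging of replicates. The logarithm is base 2, and genotypes were kept only with ≥10 input reads and ≥1 read per output in Illumina sequencing. The sequenced libraries came from one triplicate in vitro selection round, including frozen incubation at −7 °C, of PCR-built, transcribed mutant libraries of each subunit of a heterodimeric triplet polymerase ribozyme.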

Row | Variant | polymerase ribozyme fitness (log ratio)
1 | GGAUCUUCUCGAUCUAACAAAAAAGACAAAUCUGCCACAAAGCUUGAGAGCAUCUUCGCAUGCACAGGCGGCAGCCUUCGGUGGCGGGAUAGCGCCAACGUUCUCAACUAUGACACGCAAAACGCGUGCUCCGUUGAAUGGAGUUUAUCAUG [G59C G65C C87G] | ≤ -4.2
2 | GGAUCUUCUCGAUCUAACAAAAAAGACAAAUCUGCCACAAAGCUUGAGAGCAUCUUCGUAUGCAGAGUCGGCAGCCUUCGGUGGCGCCAUAGCGCCAACGUUCGCAACUAUGACACGCAAAACGCGUGCUCCGUUGAAUGGAGUUUAUCAUG [G59U G68U G88C U104G] | ≤ -4.2
3 | GGAUCUUCUCGAUCUAACAAAAAAGACAAAUCUGCCACAAAGCUUGAGAGCAUCUUCGGCUGCAGAGGCGGCAGCCUUCGAUGGCGCGAGAGCGUCAACGUUCUCAACUAUGACACGCAAAACGCGUGCUCCGUUGAAUGGAGUUUAUCAUG [A60C G81A U90G C95U] | ≤ -4.2
4 | GGAUCUUCUCGAUCUAACAAAAAAGACAAAUCUGCCACAAAGCUUGAGAGCAUCUUCGCAUGCGGAGGCGGCAGCCUUCGGUGGAGUGAUAGUGCCAACGUUCUCAACUUGGACACGCAAAACGCGUGCUCCGUUGAAUGGAGUUUAUCAUG [G59C A64G C85A C87U C93U A110U U111G] | ≤ -4.2
5 | GGAUCUUCUCGAUCUAACAAAAAAGACAAAUCUGCCACAAAGCUUGAGAGCAUCUUCGGGUGCAGAGGCGGCAGCCUUCCGUGGCGCUAUAGCGCCAGCGUUCUCAACUAUGACACACGACACGCGUGCUCCGUUGAAUGGAGUUUAUCAUG [A60G G80C G88U A98G G117A A119G A121C] | ≤ -4.2
6 | GGAUCUUCUCGAUCUAACAAAAAAGACAAAUCUGCCACAAAGCUUGAGAGCAUCUUCGGGUGCAGAGGCGGCAGCCUUCGGUGUCGCGACAGCGCCAACGUUCUCAACUAUGACACGCAAAACGCGUGCUCCGUUGAAUGGAGUUUAUCAUG [A60G G84U U90C] | ≤ -4.2
7 | GGAUCUUCUCGAUCUAACAAAAAAGACAAAUCUGCCACAAAGCUUGAGAGCAUCUUCGCAUGCAGAGGCGGCAGCCUUCGGUGGCGCGAUAGCGCCAACGUUCUCAACUAUGACAGGCAAAACGCGUGCUCCGUUGAAGGGCCUUUAUCAUG [G59C C116G U139G A142C G143C] | ≤ -4.2
8 | GGAUCUUCUCGAUCUAACAAAAAAGACAAAUCUGCCACAAAGCUUGAGAGCAUCUUCGGCUGCAGACGCGGCAGCCUUCGGUGGCGCGAUGGCGCUAACGUUCUCAACUAUGACACGCAAAACGCGUGCUCCGUUGAAUGGAGUUUAUCAUG [A60C G67C A91G C96U] | ≤ -4.2
9 | GGAUCUUCUCGAUCUAACAAAAAAGACAAAUCUGCCACAAAGCUUGAGAGCAUCUUCGGCUGCAGAGGCGGCAGCCUUCGGUGGCGCUAUAGCGCCAACGUUCUCAACUAUGACACGCAAAACGCGUGCUCCGUUGAAUGCAGUUGAUCACG [A60C G88U G141C U146G U151C] | ≤ -4.2
10 | GGAUCUUCUCGAUCUAACAAAAAAGACAAAUCUGCCACAAAGCUUGAGAGCAUCUUCGGCUGCAGAGGCGGCAGGCUUCGGUGGCGCGAUAGCGCCAACGUUCUCAACUAUGACACGCAAAACGCGUGCUCCGUUGAAUCGAGUUUAUCAUG [A60C C75G G140C] | ≤ -4.2
11 | GGAUCUUCUCGAUCUAACAAAAAAGACAAAUCUGCCACAAAGCUUGAGAGCAUCUUCGUAUGCAGAGGCGGCAGCCUUCGGUGUCGCGAUAGCGCCAACGUUCUGAACUAUGACACGCAAAACGCGUGCUCCGUUGAAUGGAGUUUAUCAUG [G59U G84U C105G] | ≤ -4.2
12 | GGAUCUUCUCGAUCUAACAAAAAAGACAAAUCUGCCACAAAGCUUGAGAGCAUCUUCGCAUGCAGAGGCGGCAGCCUUCGGUGGCGCGAUAGCUCCAACGUUCUUAACUAUGACACGAAAAACGCGUGCUCCGUUGAAUGGAGUUUAUCCUG [G59C G94U C105U C118A A150C] | ≤ -4.2
13 | GGAUCUUCUCGAUCUAACAAAAAAGACAAAUCUGCCACAAAGCUUGAGAGCAUCUUCGGGUGCAGAGGCGGCAGCCUUUGGUAGCGCGAUAGCCCCAACGUUCUCAAUAAUGACACGCAAAACGCGUGCUCCGUUGAAUGGAGUUUAGCAUG [A60G C79U G83A G94C C108U U109A U148G] | ≤ -4.2
14 | GGAUCUUCUCGAUCUAACAAAAAAGACAAAUCUGCCACAAAGCUUGAGAGCAUCUUCGUAUGCAGAGGCGGCAACCGUCGGUGGCACGAUAGCGCCAACGUUCUCAACUAUGACACGCAAAACGCGUGCUCCGUUGAAUGGAGUUUAUCAUG [G59U G74A U77G G86A] | ≤ -4.2
15 | GGAUCUUCUCGAUCUAACAAAAAAGACAAAUCUGCCACAAAGCUUGAGAGCAUCUUCGGGUGCAGAGGCGGCAGCCUUCGGUGGCGCGAUAGCGCCAAGGUUCUAAACUAUGACACGCAAAACGGGUGCUCCGUUGAAUGGAGUUUAUCAUG [A60G C99G C105A C125G] | ≤ -4.2
16 | GGAUCUUCUCGAUCUAACAAAAAAGACAAAUCUGCCACAAAGCUUGAGAGCAUCUUCGAAUGCAGAGGCGGCACCCUUCGGUGGCUCGAUAGCGCCAACGUUUUCAACUAUGACACGCAAAACGCGUGCUCCGUUGAAUGGAGUUUAUCAUG [G59A G74C G86U C103U] | ≤ -4.2
17 | GGAUCUUCUCGAUCUAACAAAAAAGACAAAUCUGCCACAAAGCUUGAGAGCAUCUUCGCAUGCAGACGCGGCAGCCUUCGGUGGCGCGAUAGCGCCGACGUUCUCAACUGUGACACGCAAAACGCGUGCUCCGUUGAAUGCAGUUUAUCAUG [G59C G67C A97G A110G G141C] | ≤ -4.2
18 | GGAUCUUCUCGAUCUAACAAAAAAGACAAAUCUGCCACAAAGCUUGAGAGCAUCUUCGGGUGCAGAGGCGGCAACCUUCGGUGGCGACAUAGCGCCAACGUUCUCAACUAUGACACGCAAAACGCGUGCUCCGUUGAAUGGAGUUUAUCAUG [A60G G74A C87A G88C] | ≤ -4.2
19 | GGAUCUUCUCGAUCUAACAAAAAAGACAAAUCUGCCACAAAGCUUGAGAGCAUCUUCGGCUGCAGAGGCGGCAGCCUUCGGUGGGGCGAUAGCGCCAACGUUCUCAACUAUGACAUGCAAAACGCGUGCUCCGUUGAAUGGAGUUUAUCAUG [A60C C85G C116U] | ≤ -4.2
